The whole screen tested about 310,000 compounds, of which about 2,200 (0.71%) showed an effect of 50% or more. The effect is printed as a negative number. Some of the results follow.
The molecules below were run against human ether-à-go-go-related gene (hERG) potassium channel (human, UniProt Q12809) (assay: primary screen, population patch clamp on CHO cells stably expressing hERG).
Sequence of human ether-à-go-go-related gene (hERG) potassium channel (Q12809 whole entry, looked up): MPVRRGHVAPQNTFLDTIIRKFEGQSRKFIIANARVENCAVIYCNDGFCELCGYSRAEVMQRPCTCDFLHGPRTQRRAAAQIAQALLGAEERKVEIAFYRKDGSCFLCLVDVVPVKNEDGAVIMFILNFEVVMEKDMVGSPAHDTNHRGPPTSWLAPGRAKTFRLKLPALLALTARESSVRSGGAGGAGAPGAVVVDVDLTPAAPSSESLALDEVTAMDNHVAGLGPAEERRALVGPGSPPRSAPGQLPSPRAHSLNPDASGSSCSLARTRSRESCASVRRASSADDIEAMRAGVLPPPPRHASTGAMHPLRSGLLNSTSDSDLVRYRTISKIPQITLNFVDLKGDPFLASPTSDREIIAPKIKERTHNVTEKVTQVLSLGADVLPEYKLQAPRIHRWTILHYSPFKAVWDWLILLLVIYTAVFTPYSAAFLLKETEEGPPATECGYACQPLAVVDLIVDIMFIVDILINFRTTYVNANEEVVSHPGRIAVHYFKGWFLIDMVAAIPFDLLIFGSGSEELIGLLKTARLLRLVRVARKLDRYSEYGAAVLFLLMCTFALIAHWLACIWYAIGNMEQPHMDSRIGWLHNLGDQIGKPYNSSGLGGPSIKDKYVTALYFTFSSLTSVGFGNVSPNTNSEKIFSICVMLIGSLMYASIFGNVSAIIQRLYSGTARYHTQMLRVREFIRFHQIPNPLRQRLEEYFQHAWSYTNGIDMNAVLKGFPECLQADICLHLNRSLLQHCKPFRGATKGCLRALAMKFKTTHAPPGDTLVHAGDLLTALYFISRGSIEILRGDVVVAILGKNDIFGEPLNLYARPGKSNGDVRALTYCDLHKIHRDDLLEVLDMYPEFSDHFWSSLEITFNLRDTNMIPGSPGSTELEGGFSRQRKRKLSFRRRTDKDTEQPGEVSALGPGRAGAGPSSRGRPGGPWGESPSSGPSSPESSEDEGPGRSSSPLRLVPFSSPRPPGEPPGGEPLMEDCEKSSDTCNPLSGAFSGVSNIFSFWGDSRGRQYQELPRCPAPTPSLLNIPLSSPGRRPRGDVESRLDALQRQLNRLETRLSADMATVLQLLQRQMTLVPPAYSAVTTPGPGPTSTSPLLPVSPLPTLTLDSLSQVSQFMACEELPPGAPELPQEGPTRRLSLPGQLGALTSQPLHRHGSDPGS

SMILES	hERG current change (%, negative = inhibition) at 1uM
CC(C)CC(=O)Nc1ccc2ccccc2c1	14.8%
O=C(COc1ccc(Br)cc1)NCCNC(=O)c1ccncc1	0.672%
C=CCn1c(SCn2nnc3ccccc3c2=O)nnc1-c1ccc(Cl)cc1	-21.8%
CNC(=O)N(O)C1N(/N=C/c2ccc(N(C)C)cc2)C(=S)SC1(C)C (stereo not shown)	24.9%
CC1CCCCN1CCCNC(=O)C1CCN(c2nnc(-n3cccc3)s2)CC1 (stereo not shown)	6.55%
CC1=CC(C)(C)N(C(=O)CSc2nnc(N)s2)c2ccccc21	7.05%
Cc1cc(=O)n2[nH]c(C)c(-c3ccc(Cl)cc3)c2n1	9.06%
CCOC(=O)c1c(NC(=O)CCS(=O)(=O)c2ccccc2)sc2c1CCN(C)C2.Cl	-9.18%
COc1ccc(CCN2CC(C(=O)NCCc3ccc(F)cc3)CCC2=O)cc1 (stereo not shown)	4.39%
CCN(C(=O)CN1C(=O)S/C(=C\c2ccccc2OC)C1=O)C1CCS(=O)(=O)C1 (stereo not shown)	11.1%
O=c1c2cnn(-c3ccccc3)c2ncn1Cc1ccco1	8.66%
Cc1cc(=O)oc2ccc(OCC(=O)N3CCc4ccccc43)cc12	2.34%
CC(OC(=O)c1cc2sccc2n1C)C(=O)NCc1ccco1 (stereo not shown)	1.63%
O=C1ON=C(c2ccccc2)/C1=C/c1ccc(OS(=O)(=O)c2ccccc2)cc1	13.9%
Cc1ccc(/C=N/Nc2ccnc3cc(Cl)ccc23)c(C)c1	0.752%
Nc1cc(C(=O)OCC(=O)NCc2ccc(F)cc2)ccc1Cl	9.24%
CCOC(=O)c1c(NC(=O)c2ccn(CC)n2)sc2c1CCC2	8.99%
CCN1C(=O)/C(=C/c2ccc(C)o2)N(C)C1=S	15.6%
COc1ccc(NC(=O)CSc2nnc(C)c3ccccc23)cc1	12.9%
C=CCN1C(=O)C(Cc2ccc(OC)cc2)S/C1=N\N=C\c1cccs1 (stereo not shown)	14.5%
Cc1ccc(OCCN(C)C(=O)C2CCC(=O)N(CCCN3CCCC3=O)C2)cc1 (stereo not shown)	18.8%
COc1cccc(N2C(=O)CN(Cc3cc(OC)c(OC)c(OC)c3)C2=S)c1	14.3%

SMILES	hERG current change (%, negative = inhibition) at 1uM
N#CCCN(Cc1ccccc1)C(=S)NC(=O)c1ccccc1	5.98%
CCOC(=O)c1sc(NC(=O)CCN2CCCCCC2)c(C(=O)OCC)c1C	10.6%
CCc1ccc2[nH]c(=O)c(CN(Cc3nnnn3C3CCCC3)C3CCCCC3)cc2c1	6.64%
Cc1c(OCC(=O)N[C@@H](Cc2c[nH]c3ccccc23)C(=O)O)ccc2c1oc(=O)c1ccccc12	1.7%
CN(C)C(=O)Oc1cccc([N+](C)(C)C)c1.[Br-]	5.36%
O=C1NC(c2ccco2)Nc2sc3c(c21)CCN(Cc1ccccc1)C3 (stereo not shown)	-0.668%
CC(C)c1ccc(NC2CCCN(C(=O)c3ccccc3-c3ncc[nH]3)C2)cc1 (stereo not shown)	1.4%
Cc1cc(=O)c2cc3nc(-c4cccnc4)oc3c(Br)c2o1	14.1%
COc1ccc(/C=N/NC(=O)OC(C)(C)C)cc1OC	3.01%
Nc1ncc(CN2CCCC(C(=O)Nc3ccc(-c4ccco4)cc3)C2)cn1 (stereo not shown)	2.16%
Cc1ccc(OCC(=O)N2CCN(S(=O)(=O)c3ccccc3[N+](=O)[O-])CC2)cc1	8.69%
N#CCCn1c(=S)[nH]c2ccccc21	14.2%
Cc1ccc(CCN2CC(C(=O)NC3CCCC3)CC2=O)cc1 (stereo not shown)	10.7%
CCc1c(C)c(C#N)c2nc3ccccc3n2c1NC	5.81%
CCOc1ccc(CCNC(=O)COC(=O)c2cccnc2OCC)cc1OCC	7.08%
CC(=O)OCC(=O)[C@H]1CC[C@H]2[C@@H]3CC[C@H]4C[C@H](O)CC[C@]4(C)[C@H]3C(=O)C[C@]12C	3.12%
O=c1nc(-c2ccccc2)c2cc(Br)ccc2[nH]1	17.5%
CCOC(=O)c1cnc(SCc2nc(N)nc(Nc3ccccc3OC)n2)nc1N	-4.13%
COc1ccc([N+](=O)[O-])cc1NC(=O)Nc1cccc(Cl)c1	7.66%
CSc1cccc(NS(=O)(=O)c2cc(Br)cnc2N)c1	2.74%
S=C(Nc1ccccc1)N1CCCCCC1	9.2%
COC(=O)C1=C(c2cc3ccccc3o2)C[C@@H]2CC[C@H]1N2C(=O)NCCO	12.6%

SMILES	hERG current change (%, negative = inhibition) at 1uM
CC1C=CCC2C(=O)N(c3ccc(OC(=O)c4ccco4)cc3)C(=O)C12 (stereo not shown)	10.8%
COc1ccccc1NC(=O)c1ccc2c(c1)OCO2	12.6%
COc1ccc(NC(=O)c2sc3nc(N4CCOCC4)c4c(c3c2N)CC(C)(C)OC4)c(OC)c1	16.1%
Cc1c(NC(=O)CSc2nc3ccccc3c(=O)n2C(C)C)c(=O)n(-c2ccccc2)n1C	6.03%
Cc1ccc(-c2n[nH]c(=S)n2/N=C/c2cc3c(cc2[N+](=O)[O-])OCO3)cc1	15.1%
O=c1c2ccccc2[nH]c(=S)n1CCCN1CCN(C2CCCCC2)CC1	-25.8%
Cc1ccc(S(=O)(=O)N2CCN(C(=O)c3cc4c(s3)CCCC4)CC2)cc1	4.24%
O=C(O)CC1S/C(=N/N=C/C2CC=CCC2)NC1=O (stereo not shown)	9.66%
Cc1ccc(N2C(N)=C(C#N)C(c3cccnc3)C3=C2CC(C)(C)CC3=O)cc1 (stereo not shown)	10.9%
COCCC(=O)N1CCC(Oc2ccc(C(=O)N3C[C@H]4CC[C@H]3C4)cc2)CC1	16.2%
COc1ccc(NC(=O)CSc2nnc3ccc(-c4cccnc4)nn23)cc1	-9.61%
Cc1cc(-c2nc3ncccc3o2)ccc1NC(=O)CC(C)C	-4.93%
O=C(Nc1ccccc1)C1=C[C@@H](c2ccc(C(F)(F)F)cc2)C[C@@H](OCCCCO)O1	15.3%
Nc1nc(-c2ccc(Cl)cc2)nnc1-c1ccc(Br)cc1	24.8%
CCNc1nc(NCC)nc(N2CC(=O)N(CC(=O)OCC)C2=N)n1	7.16%
O=C(CN1C(=O)COc2ccccc21)N1CCc2ccccc2C1	8.14%
CC1(C)C([N+](=O)[O-])C(c2ccc(O)cc2)NC(c2ccc(O)cc2)C1[N+](=O)[O-] (stereo not shown)	10.3%
CSc1nc(Oc2ccc(F)cc2F)cc(C(F)(F)F)n1	16.9%
CC(=NCCC1=CCCCC1)c1c(O)n(C)c(=O)n(C)c1=O	3.33%
O=C1NC(=S)/C(=C\c2ccc(-c3ccccc3Cl)o2)S1	17.2%
Cc1ccc(C)c2nc(SCC(=O)Nc3ccc4c(c3)OCO4)c(C#N)cc12	14.2%
CCOc1ccccc1NC(=O)CSc1nnc(Cc2ccc(OC)cc2)c(=O)n1N	-13.3%

SMILES	hERG current change (%, negative = inhibition) at 1uM
O=C(CCCCCN1C(=O)[C@@H]2Cc3ccccc3CN2C1=O)N[C@@H](Cc1ccc(O)cc1)C(=O)O	4.22%
CCCn1nnnc1NCc1ccc(N2CCCC2)cc1	-1.22%
CCOc1ccc(CCNS(=O)(=O)c2c(C)nc3scc(C)n3c2=O)cc1OCC	-5.56%
Cn1c(N)c(C(=O)COC(=O)C2CCC(C(C)(C)C)CC2)c(=O)n(C)c1=O (stereo not shown)	8.69%
Cc1cc(C)c(S(C)(=O)=O)c(N(C)NC(=O)c2c(F)cccc2F)n1	18.6%
O=c1[nH]cccc1-c1nc2ccccc2n1Cc1cccc(F)c1	-0.764%
CCCNC(=O)Cn1nc(C)n2c(cc3cc(F)ccc32)c1=O	16.3%
N#CCC(CNc1ncc(C(F)(F)F)cc1Cl)OC(=O)c1ccc(Cl)cc1Cl (stereo not shown)	11.1%
Cc1sc2ncnc(Sc3ccccc3C(=O)O)c2c1C	7.73%
O=C(NNC(=O)c1ccccc1)C(=O)N1CCCCC1	-2.99%
Cc1nc(NC(=O)c2ccccc2)sc1-c1csc(NCc2ccccc2)n1	-6.76%
COc1ccc(S(=O)(=O)N2CCC(C(=O)NCC3CCCO3)CC2)cc1C (stereo not shown)	14.5%
COc1ccccc1C/C(N)=N/OC(=O)COc1ccc(C)cc1C	16.2%
Cc1ccc(NC(=S)NCCc2ccc(Cl)cc2)c(C)c1	12.4%
CC(C)CCOCC1CC2(CC(C)(c3csc(N)n3)OC2=O)C(=O)O1 (stereo not shown)	9.72%
CC(=O)NC(CCS(C)(=O)=O)C(=O)Nc1ccc2c(c1)OCO2 (stereo not shown)	10.7%
CC(CCc1ccccc1)NC(=O)C1CCN(S(=O)(=O)c2cnc[nH]2)CC1 (stereo not shown)	8.8%
CCN(CC)CCn1c2c(c(SCC(=O)Nc3nc(C)cs3)nc1=O)CCCC2	-28.6%
CCCC1Cc2nc(Cl)c(C#N)cc2CO1 (stereo not shown)	14.3%
CC(=O)N1C(=O)N(C(C)=O)C2C1N(C(C)=O)C(=O)N2C(C)=O (stereo not shown)	5.89%
Cc1ccccc1N1CCN(C2CCCN(C(=O)CCN3CCCCC3=O)C2)CC1 (stereo not shown)	12.5%
COc1cccc(Oc2ccc(C(F)(F)F)cc2N)c1	12.9%

From paper PMC4336329 (PLoS ONE, 2015)
